Data as given in the supplement of paper PMC10338343.
± gives the standard deviation. The list shows a part of the results, in another mix than the full data.

Tested on: MIWI (PIWIL1) piRISC loaded with L1MC piRNA (30 nt)
Assay: pre-steady-state target cleavage rate (min^-1); MIWI and MILI are mouse PIWI proteins and EfPiwi is from a freshwater sponge; tags in brackets are library labels; higher = faster piRNA-guided slicing of the target
Conditions: guide: L1MC piRNA 5'p-UAACUAAAUACUAUGCAAGCUGUAGGUCCU
Outline: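 Cleave-'n-Seq: 1 nM active affinity-purified piRISC with one synthetic guide and 0.1 nM transcribed, DNA-blocked target RNA library were mixed, with or without 500 nM GTSF1 partner protein, in HEPES–potassium acetate buffer at 33 °C for 0–8 or 0–960 min. Uncleaved targets were sequenced and normalised to depth and to weakly complementary targets, three trials were pooled, and k3 was capped at 0.0001 min^-1. The pre-steady-state cleavage rate was fitted […].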

[1] = auxiliary factor: 500 nM mouse GTSF1
[2] = auxiliary factor: none (no GTSF1)

| Sequence | pre-steady-state target cleavage rate [1] | pre-steady-state target cleavage rate [2] |
| --- | --- | --- |
| UCCUGCUACAGCUUGCGUAGUAUUUAGUUA | 0.806 ± 0.044 | 0.0172 ± 0.0034 |
| UCCUGGAUGAGCUUGCAUAGUAAAUAGUUA | 0.0824 ± 0.013 | 0.00476 ± 0.0025 |
| UCCUCCUACAGCUUGCAUACUAUUUAGUUA | 0.37 ± 0.023 | 0.0292 ± 0.0044 |
| AGGAGGUACAGCUUGCAUAGUAUUUAGUAA | 0.803 ± 0.079 | 0.0437 ± 0.0095 |
| UCCAGGUACAGCUUGCAUAGUAUUUACAAA | 0.211 ± 0.033 | 0.00549 ± 0.0022 |
| UGGACCUACACUUGCAUAGUAUUUAGUUA | 1.33 ± 0.082 | 0.045 ± 0.0091 |
| UGGACCUACAGCUUGAAUAGUAUUUAGUUA | 1.63 ± 0.08 | 0.0423 ± 0.0078 |
| UCCUCCUACAGCAUGCAUACUAUUUAGUUA | 0.377 ± 0.021 | 0.0154 ± 0.0035 |
| UCCACGAACAGCUUGCAUAGUAUUUAGAAA | 0.328 ± 0.039 | 0.00702 ± 0.0022 |
| UCCUGGUACAGCUUGCAUAGUAUUUAAGUUA | 0.551 ± 0.071 | 0.0258 ± 0.0076 |
| UCGACCCUACAGCUUGCAUAGUAUUUAGUUA | 1.33 ± 0.061 | 0.0734 ± 0.012 |
| UCCUGCUACAGCUUGCAUAGUAAUUACUUA | 0.195 ± 0.033 | 0.0106 ± 0.0035 |
| UCCUCGUACAGCUUGCAUAGUAAUUAGUUA | 0.952 ± 0.032 | 0.029 ± 0.007 |
| AGGACCUACAGCUUGCAUAGUAUUUAGUAA | 1.07 ± 0.087 | 0.0842 ± 0.018 |
| AGGACCUACAGCUUGCAUAGUAUUUUCAUA | 0.304 ± 0.044 | 0.00902 ± 0.005 |
| UCCUCCUACAGCUAGCAUAGUAUUUUGUUA | 0.672 ± 0.034 | 0.00769 ± 0.0017 |
| UCCUGGAUGAGCUUGCUUACUAUUUAGUUA | 0.0559 ± 0.005 | 0.0077 ± 0.0023 |
| UCGUCCUACAGCUUGCAUAGUAUUUAGUAA | 0.82 ± 0.037 | 0.0372 ± 0.0076 |
| UCCACGUACAGCUUGCAUAGUAUUUAGAUA | 0.33 ± 0.025 | 0.0188 ± 0.0033 |
| UCCUGGAUGAGCUUGCAAAGUAUUUAGUAA | 0.466 ± 0.042 | 0.023 ± 0.0089 |

| Sequence | pre-steady-state target cleavage rate [1] | pre-steady-state target cleavage rate [2] |
| --- | --- | --- |
| UCGACCUACAGGUUGCAUAGUAUUUAGAAA | 0.411 ± 0.042 | 0.00412 ± 0.0021 |
| AGGACCUACAGCUUGCAUAGUAUCUUAGUUA | 0.944 ± 0.066 | 0.0784 ± 0.02 |
| UGGACCUACAGCUUGCAUAGUAUUUACGUUA | 0.893 ± 0.062 | 0.0507 ± 0.011 |
| UCCUGGAUGUCCUUGCAUAGUCUUUAGUUA | 0.02 ± 0.0049 | 0.0105 ± 0.0023 |
| UGGACCUUCAGCUUGCAUAGUAUUUACAAA | 0.286 ± 0.035 | 0.00849 ± 0.0031 |
| UCCACCUUGAGCUUGCAUAGUAUUUAGUUA | 0.854 ± 0.13 | 0.0329 ± 0.0057 |
| AGGACCUACAGCUUGCAUAGUAUGUAGUUA | 0.647 ± 0.13 | 0.0176 ± 0.0064 |
| UCCUGGAACAGCUAGCAUAGUAUUUAGAUA | 0.31 ± 0.035 | 0.00739 ± 0.0034 |
| UGGACCUACAGCUUGCAUAGUAGUUUAGUUA | 0.456 ± 0.038 | 0.0158 ± 0.0038 |
| UCCUCCUACAGCUUGCAUACUAAUUAGUUA | 0.191 ± 0.018 | 0.00644 ± 0.0023 |
| UCCUGGAUGAGCUGUGCAUAGUAUUUAGUUA | 0.597 ± 0.035 | 0.0153 ± 0.0046 |
| UCCUGGAUCAGCUUGCAUAGUAUGUUAGUUA | 0.588 ± 0.032 | 0.0104 ± 0.0029 |
| UCCACCUAGAGCUUGCAUAGAAUUUAGUUA | 0.433 ± 0.059 | 0.0118 ± 0.0026 |
| UCCUCCUACAGCUUGCAUAGUUUUUAGUUA | 0.376 ± 0.025 | 0.0278 ± 0.0055 |
| UCCUGGAACAGCUUGGAUAGUUUUUAGUUA | 0.257 ± 0.031 | 0.03 ± 0.0077 |
| UCCUGGAUCAGCUUGCAUAGUAUUUAGUAUA | 0.842 ± 0.042 | 0.0129 ± 0.0036 |
| UCCUGGAUCAGCUUGCAUAGUAUUUUCUAA | 0.227 ± 0.044 | 0.00504 ± 0.0029 |
| UCCUGGAUGUGCUUGCUUAGAAUUUAGUUA | 0.00451 ± 0.0036 | 0.00226 ± 0.0022 |
| AGGACCUACAGCUUGCUUAGAAUUUAGUUA | 0.377 ± 0.04 | 0.00929 ± 0.0032 |
| UCCACCUACACGUUGCAUAGUAUUUAGUAA | 0.503 ± 0.036 | 0.00865 ± 0.002 |

| Sequence | pre-steady-state target cleavage rate [1] | pre-steady-state target cleavage rate [2] |
| --- | --- | --- |
| UCCUGCUACAGCUUGCAUAGUAUUUCGUUA | 0.278 ± 0.04 | 0.0278 ± 0.0063 |
| UCGACCUACAGCUUGCAUAGUAUUUAAGUUA | 1.03 ± 0.059 | 0.0887 ± 0.021 |
| UCGACCUACAGCUUGGAUAGUAUUUAGAAA | 0.372 ± 0.044 | 0.00679 ± 0.002 |
| UCCACCUAGAGCUAGCAUAGUAUUUAGUUA | 0.339 ± 0.042 | 0.0098 ± 0.0019 |
| UCCUCCUACAGCUUGCAUAGUAUUUAGUUC [g2:g26:cont:t1C] | 1.09 ± 0.039 | 0.0511 ± 0.011 |
| UCCCCCUACAGCUUGCAUAGUAUUUAGUUA | 1.28 ± 0.039 | 0.0819 ± 0.014 |
| UCCUCCUACUGCUUGCAUUGUAUUUAGUUA | 0.848 ± 0.025 | 0.0282 ± 0.0065 |
| UCCACCUACUGGUUGCAUAGUAUUUAGUUA | 0.661 ± 0.062 | 0.0297 ± 0.0047 |
| UCCUGGAUGAGCUUGCAUAGUAUGUUAGUUA | 0.377 ± 0.033 | 0.0117 ± 0.0036 |
| UCCACCUACAGUUUGCAUAGUAUUUAGUUA | 0.892 ± 0.072 | 0.0474 ± 0.0076 |
| UCCUGGAUGAGCUUGCAUAGUUAUUAGUUA | 0.037 ± 0.01 | 0.0092 ± 0.0039 |
| ACGACCUACAGCAUGCAUAGUAUUUAGUUA | 1.43 ± 0.053 | 0.082 ± 0.021 |
| UCCUGGAACAGCUUGCAUAGUAUUUACUAA | 0.124 ± 0.022 | 0.0106 ± 0.0047 |
| UCCUGGAACAGCUUGCAUAGUAUUUACAUA | 0.169 ± 0.03 | 0.0166 ± 0.0043 |
| UGGACCUACAGCUUGCAUUGUAUUUUGUUA | 0.639 ± 0.045 | 0.0172 ± 0.0052 |
| UCGACCUACAGCUUGCAUAGAAUUUUGUUA | 0.494 ± 0.052 | 0.0108 ± 0.0028 |
| UCCUGCUACAGCUUGCAUAGUAUUAUCUUA | 0.252 ± 0.041 | 0.00319 ± 0.0023 |
| UCCUGGAUGUGCUUGCAUUGUAUUUUGUUA | 0.0161 ± 0.0055 | 0.00636 ± 0.0027 |
| AGGACCUACAGCUUGCAUAGAAUUUAGUUA | 0.559 ± 0.044 | 0.0408 ± 0.011 |
| UCCUGGUACAGCUUGCAUAGUUAUUAGUAA | 0.0627 ± 0.017 | 0.00413 ± 0.0036 |
